Among all 94,000 compounds or so, about 6,200 (6.6%) were called active. Inconclusive means that the source gave no clear call. Such entries were picked first, then a sample of the others. Calls come from the whole dose curve; as a rule, active = well fitted inhibition curve with a large enough effect; inconclusive = small, poorly fitted or top-dose-only effect; inactive = flat fitted curve, though single readings scatter. Where the call is inconclusive, the potency comes from a doubtful curve fit.
Assay: Cytotoxic Profiling in HEK 293 Cell Line of Diverse Libraries Using Quantitative High-Throughput Screening; note: nearly all actives have a fitted effect of over 60% in size
Conditions: HEK 293 viability, ATP luminescence (CellTiter-Glo), 48-72 h; series mostly up to 115 µM
In short: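 qHTS cytotoxicity; HEK 293, 250 cells/well; compound pinned; 48 or 72 hr, 37 degree Celsius, 5% CO2, 95% humidity; CellTiter-Glo, 10 min RT; luminescence (ATP).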
Potency is the fitted concentration of half-maximal effect; tags give direction and shape of the fitted curve.

Row | Structure (SMILES) | Potency
1 | O=C(NCc1ccccc1)c1nc2sccn2c1-c1ccc(C(F)(F)F)cc1 | active: 39.8 µM
2 | Cc1cn2nc(C(=O)N3CCC(NC(=O)c4cccn4C)CC3)cc2c(=O)[nH]1 | inactive
3 | CN1CCC(OC2CCN(C(=O)c3cc(F)cc(F)c3)CC2)CC1 | inactive
4 | CC(C)Cn1c(=O)c(C(=O)N2CCN(C(=O)c3ccccc3)CC2)nc2cccnc21 | inactive
5 | CNC(=O)C(=O)N1C[C@H](C(=O)NC)[C@H]2c3ccccc3N(CCOC)C(=O)[C@]21C | inconclusive: 44.7 µM [inhibitor, single point]
6 | COc1ccc(CC(=O)NC2CCCN(Cc3cccc(-c4ccc(C)c(Cl)c4)c3)C2)cc1 (stereo not given) | inconclusive: 79.4 µM [inhibitor, partial curve, poor fit]
7 | CCOc1ccccc1C(=O)NC1CCN(c2cc(-c3ccc(OC)cc3)[nH]n2)C1 (stereo not given) | inconclusive: 56.2 µM [inhibitor, partial curve, poor fit]
8 | CN1C[C@@H](NC(=O)c2ccc3c(c2)OCO3)C[C@H]1c1nc(-c2ccc(Cl)cc2)no1 | active: 50.1 µM
9 | O=C(c1cc(F)ccc1F)N1CC(Oc2ccc(-c3nc(-c4ccccc4)no3)cc2)C1 | inconclusive: 39.8 µM [inhibitor, full curve]
10 | COc1ccc(-c2nc(C3CN(C(=O)c4cc(F)cc(F)c4)C3)no2)cc1 | inconclusive: 79.4 µM [inhibitor, partial curve]
11 | Cc1cnc(C(=O)N[C@@H]2CCC[C@@H]2C(=O)N2CCN(c3cccc(C)c3C)CC2)cn1 | inconclusive: 100 µM [inhibitor, single point]
12 | O=C(c1ccc2[nH]ccc2c1)N1CCC2(CC1)N=C(c1ccc(Br)cc1)NO2 | inconclusive: 35.5 µM [inhibitor, partial curve, poor fit]
13 | COc1ccc(S(=O)(=O)NC[C@H]2Cn3c(-c4ccc(F)cc4)cnc3CO2)cc1 | inconclusive: 100 µM [inhibitor, partial curve, poor fit]
14 | O=C1NC(=NC2CCCC2)C2(CCCN(CC3CCCCC3)C2)N1c1cc(F)cc(F)c1 (stereo not given) | active: 35.5 µM
15 | O=C(NCCc1ccccc1)C1CCCN(c2nccc(Nc3ccccc3F)n2)C1 (stereo not given) | inconclusive: 50.1 µM [inhibitor, partial curve, poor fit]
16 | CCn1ccnc1C1CCN(c2nc3ccccc3s2)CC1 | inconclusive: 89.1 µM [inhibitor, partial curve, poor fit]
17 | COc1ccc(S(=O)(=O)N2CCCN(C)c3ccccc32)cc1 | inconclusive: 8.91 µM [inhibitor, full curve, poor fit]
18 | CN1c2cc(C(=O)NCc3ccc(F)cc3Cl)ccc2C(=O)N2CCCCC21 (stereo not given) | inconclusive: 50.1 µM [inhibitor, partial curve, poor fit]
19 | NCCn1cc(C(=O)NCCc2noc(-c3ccccc3)n2)nn1 | inactive
20 | Cc1ccc(S(=O)(=O)N2CCC(n3cnnc3C(C)C)CC2)cc1C | inconclusive: 35.5 µM [inhibitor, full curve]

Row | Structure (SMILES) | Potency
21 | OC[C@H]1CCN(Cc2ccc(-c3ccn[nH]3)o2)C[C@H]1O | inactive
22 | COc1cccc(OC)c1-c1cccc(C(=O)c2nccn2C)c1 | inconclusive: 100 µM [inhibitor, single point]
23 | Cc1ccc(-c2nc(C3CC(=O)N(c4ccc(Cl)cc4)C3)no2)c(C)c1 (stereo not given) | inconclusive: 79.4 µM [inhibitor, single point]
24 | CN1C(=O)CO[C@H](c2ccc(NC(=O)C3CCCC3)cc2)[C@H]1CO | inactive
25 | CCN(Cc1ccccc1)C(=O)CC1CCCN(c2cnn(CCOC)c(=O)c2)C1 (stereo not given) | inactive
26 | CCc1nc2c(c(-c3ccc(Cl)cc3)n1)CCN([S+](=O)([O-])c1cccs1)CC2 | inconclusive: 50.1 µM [inhibitor, partial curve, poor fit]
27 | Cc1cccc(C)c1-c1nc(C(=O)N2CCCC2)n2ccccc12 | inconclusive: 126 µM [inhibitor, partial curve, poor fit]
28 | COC[C@H]1CCCN1Cc1nc(C2(O)CCN(Cc3ccccc3O)CC2)cs1 | inconclusive: 35.5 µM [inhibitor, partial curve, poor fit]
29 | COCc1nc(C2CCCN(C(=O)Nc3cccc(F)c3C)C2)no1 (stereo not given) | inactive
30 | Cn1c2c(c3cc(F)ccc31)CN(C(=O)Nc1ccc(Cl)cc1)CC2 | inconclusive: 50.1 µM [inhibitor, partial curve, poor fit]
31 | Cc1ccc(C(=O)N2CCN(c3nnc4c(Cl)cccn34)CC2)cc1 | inactive
32 | Cc1cccc(S(=O)(=O)N2[C@@H]3CC[C@H]2CC(NC(=O)c2ccc(F)cc2)C3)c1 (stereo not given in full) | inconclusive: 100 µM [inhibitor, partial curve, poor fit]
33 | Cc1cc(F)ccc1NC(=O)c1cnc2c(c1)N(C(=O)CCc1ccccc1)CCC2 | inconclusive: 126 µM [inhibitor, single point]
34 | Cc1noc(C)c1-c1ccc2c(n1)CN(CCOc1ccccc1)C(=O)CO2 | inconclusive: 126 µM [inhibitor, partial curve, poor fit]
35 | COC(=O)N(C)Cc1cccc(N2CCN(C(c3ccccc3)c3ccccc3)CC2)c1 | inconclusive: 28.2 µM [inhibitor, partial curve, poor fit]
36 | CCn1nc(CC(C)C)cc1C(=O)NCC1CCCN(Cc2ccco2)C1 (stereo not given) | inactive
37 | O=C(Cc1ccccc1)N1CCC[C@H]1c1nc(-c2ccccc2)no1 | inconclusive: 31.6 µM [inhibitor, partial curve, poor fit]
38 | O=C(CC1CCCN(c2cn[nH]c(=O)c2)C1)N1CCN(c2cccc(Cl)c2)CC1 (stereo not given) | inconclusive: 31.6 µM [inhibitor, partial curve, poor fit]
39 | COc1ccc(-c2cn(C)c(=O)n3cc(COc4ccccc4)nc23)c(C)c1 | inconclusive: 126 µM [inhibitor, single point]
40 | COCc1cc(C[C@@H]2C[C@H](NC(=O)CC(C)(C)C)C2(C)C)no1 | inconclusive: 56.2 µM [inhibitor, partial curve, poor fit]

From PubChem BioAssay AID1345083 (National Center for Advancing Translational Sciences (NCATS), 2018)
